Values joined by “and” are separate entries in the source; they are usually repeats but may differ in a detail not shown here. Equal entries are not always repeated. About 50,000 (12%) of roughly 420,000 compounds were called active. Inconclusive results, whose numbers are uncertain, are shown with a selection of clear calls. The call rests on the fitted dose curve; in most records, active means well fitted inhibition curve with a large enough effect; inconclusive means small, poorly fitted or top-dose-only effect; inactive means flat fitted curve, though single readings scatter. Potencies beside an inconclusive call are fits to weak or partial responses and may not hold up.
test: qHTS for Inhibitors of human tyrosyl-DNA phosphodiesterase 1 (TDP1): qHTS in cells in presence of CPT; conditions: chicken DT40 Tdp1-/-;hTDP1 cells + 20 nM CPT, ATP luminescence, 48 h; activity change, negative = growth inhibition: at 46.2 µM (top of the series) unless noted; further: nearly all actives have a fitted effect of over 55% in size
Method in brief: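 Cell growth measured by CellTiter-Glo luminescence after a minimum 48 h, 37 C compound exposure with 20 nM CPT in Tdp1-knockout DT40 cells stably expressing hTDP1, seeded 400/well; qHTS titration format.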
On the % scale 0 is the no-effect control and ±100 the full control effect; potency means the concentration at half of the fitted maximal effect; tags describe the fitted curve by direction and shape.

SMILES	Potency	activity change, negative = growth inhibition
N#Cc1ccccc1NC(=O)C(=O)NCC(c1cccnc1)N1CCN(c2ccccc2)CC1 (stereo not drawn)	inconclusive: 16.4 µM [inhibitor, single point]	–
CN1C(=O)/C(=N/OC(=O)c2ccccc2Br)c2ccccc21	inconclusive: 18.4 µM [inhibitor, single point]	–
O=S(=O)(NC1CCSc2ccccc21)c1ccc(Cl)nc1 (stereo not drawn)	inconclusive: 29.1 µM [inhibitor, single point]	–
COc1cccc(COCCN2CCN(S(=O)(=O)c3ccc(C)cc3)CCC2=O)c1	inconclusive: 18.4 µM [inhibitor, partial curve]	–
Cc1ccc2[nH]c(C(F)(F)F)cc(=O)c2c1	inconclusive: 8.2 µM [inhibitor, partial curve, poor fit]	–
COC(=O)c1ccccc1NC(=O)CCCn1nc([N+](=O)[O-])c(Br)c1C	active: 14.6 µM	–
COc1ccc(Cn2cc(CN3CCS(=O)(=O)N(Cc4ccc(-c5cccc(Cl)c5)cc4)C(C)C3=O)nn2)cc1 (stereo not drawn)	inconclusive: 25.9 µM [inhibitor, single point]	–
O=C(c1ccc(Sc2ccccc2)c([N+](=O)[O-])c1)N1CCOCC1	inactive	–
Cc1ccc(OCC(=O)Nc2ccc(-c3nc4ccc(C)cc4o3)cc2)cc1	active: 16.4 µM	–
COc1ccccc1C(CNC(=O)CSc1ccc2ccccc2c1)N(C)C (stereo not drawn)	inconclusive: 25.9 µM [inhibitor, single point]	–
COc1cccc(-c2n[nH]nc2C2=CC(=O)C[C@H](c3ccc(F)cc3)C2)c1	inconclusive: 29.1 µM [inhibitor, single point]	–
CS(=O)(=O)N(CC(=O)NCCSCc1ccccc1)c1ccc2c(c1)OCO2	inactive	–
COc1ccc(S(=O)(=O)N2CCC(C(=O)NCc3cccnc3)CC2)cc1OC	inactive	–
CCCSCCCNC(=O)CN1C(=O)COc2ccc(S(=O)(=O)N3CCCCCC3)cc21	inconclusive: 25.9 µM [inhibitor, single point]	–
O=C(CC1(O)C(=O)Nc2cc(Cl)cc(Cl)c21)c1ccncc1 (stereo not drawn)	inconclusive: 29.1 µM [inhibitor, single point]	–
CC1CC(OC(=O)C(O)c2ccccc2)CC(C)(C)C1 (stereo not drawn)	inconclusive: 33.5 µM [inhibitor, single point]	–
CCc1nnc(NC(=O)c2ccc(S(=O)(=O)N(CCOC)CCOC)cc2)s1	inactive	–
O=C(NCCc1ccccc1)c1cnc2sc(N3CCOCC3)nn2c1=O	inactive	–
CCOC(=O)c1c(C)oc2nc(C)nc(NCCc3ccc(S(N)(=O)=O)cc3)c12	active: 23.1 µM	–
OC1(c2cccnc2)CCN(Cc2ccc3c(c2)CN(Cc2ccc4nsnc4c2)CCO3)CC1	–	inactive: -5.15% [at 9.04 µM]
COc1ccc(C(=O)NCCS(=O)(=O)N2CCN(C(=O)c3ccco3)CC2)cc1	inactive	–
CCOc1ccccc1Nc1ccc2cc(S(=O)(=O)N3CCCCC3)ccc2n1	inconclusive: 23.1 µM [inhibitor, single point]	–
Cc1cc[n+](CC(=O)c2ccc(NC(=O)c3ccccc3)cc2)cc1	inconclusive: 23.1 µM [inhibitor, single point]	–
COC(=O)c1ccc(=O)n(-c2ccc(OC)cc2)c1	inactive	–
COc1cccc(NC(=O)Nc2nc(SC)ns2)c1	active: 9.2 µM	–

SMILES	Potency	activity change, negative = growth inhibition
CCOc1ccc(/C=N/NC(=O)c2ccc3nc[nH]c3c2)cc1OC	inconclusive: 25.9 µM [inhibitor, single point]	–
C=CCOc1c(Br)cc(/C=N/NC(=O)Cc2ccc(C(F)(F)F)cc2[N+](=O)[O-])cc1OC	active: 11.6 µM	–
CCCOc1ccc(CNC(=O)C2CCN(c3nn4c(=O)cc(C)nc4s3)CC2)cc1	inconclusive: 20.6 µM [inhibitor, single point] and inconclusive: 23.1 µM [inhibitor, single point]	–
COc1ccc(N2CCN(C(=O)CNC(=O)c3ccccc3Cl)CC2)cc1	inactive	–
CCN1CCN(c2c(Cl)cccc2NC(=O)c2cc3ccccc3o2)CC1	inconclusive: 18.4 µM [inhibitor, single point]	–
CCOC1(OCC)C(c2ccc(Cl)cc2)C(C#N)(C#N)C1(OCC)OCC (stereo not drawn)	inconclusive: 20.6 µM [inhibitor, single point]	–
Cc1cc(NC(=O)CN(c2cccc(C)c2C)S(=O)(=O)c2ccccc2)ccc1Br	active: 18.4 µM	–
O=C(c1cnn2c(C(F)(F)F)cc(-c3ccco3)nc12)N1CCc2ccccc2C1	inconclusive: 18.4 µM [inhibitor, partial curve, poor fit]	–
COc1cccc(CN(C)Cc2nc(Cc3ccccc3Cl)no2)c1	inactive	–
COC(=O)CC1COc2ccccc2N1S(=O)(=O)c1ccc(Br)cc1 (stereo not drawn)	inconclusive: 18.4 µM [inhibitor, single point]	–
CCOC(=O)c1[nH]c(C)c(C(=O)NCc2ccc(F)cc2)c1C	inconclusive: 25.9 µM [inhibitor, single point]	–
COC(=O)c1c(-c2ccccc2Cl)noc1/C=C/N(C)C	inconclusive: 29.1 µM [inhibitor, single point]	–
Cc1cc(C)cc(N(CCC#N)C(=O)CSc2ncnc3sccc23)c1	inconclusive: 25.9 µM [inhibitor, single point]	–
O=C1C=CC(=O)N1c1ccc(Nc2ccccc2)cc1	active: 5.8 µM	–
Cc1nc2ccc(Cl)cc2nc(C)/c1=N\O	inconclusive: 29.1 µM [inhibitor, single point]	–
Nc1cc([N+](=O)[O-])ccc1OCc1ccccc1	active: 18.4 µM	–
CCCOc1ccc(C(=O)CCC(=O)Nc2ccc(N3CCN(C)CC3)cc2)cc1	inconclusive: 18.4 µM [inhibitor, single point]	–
CCCCC[C@H](C)N1C[C@@H](COCc2ccccc2)Oc2cc(N3CC[C@H](O)C3)ccc2S1(=O)=O	inconclusive: 29.1 µM [inhibitor, single point]	–
CCOc1ccc2[nH]c(=S)sc2c1	active: 18.4 µM	–
Cc1ccc(C(C)(C)C)cc1S(=O)(=O)N1CC(=O)Nc2ccccc21	inactive	–
COc1nc(-c2ccc(Cl)cc2Cl)nc2ccccc12	–	inconclusive: -33% [inhibitor]
CNc1cc(C)nc(-n2nc(C)cc2C)n1	active: 5.8 µM	–
C/C(=N/Nc1nc(C)c(C)s1)c1cccc([N+](=O)[O-])c1	active: 14.6 µM	–
COc1cc2c(NC3CCN(C)CC3)nc(N3CCCN(C)CC3)nc2cc1OCC1CCCNC1 (stereo not drawn)	inactive	–
c1ccc(N2CCN(c3nc4cc5c(cc4s3)OCO5)CC2)cc1	inactive	–

SMILES	Potency	activity change, negative = growth inhibition
CCc1ccc(CNC(=O)C2CCN(c3nnc(-n4c(C)ccc4C)s3)CC2)cc1	inconclusive: 20.6 µM [inhibitor, single point]	–
COCCCNC(=O)/C(C#N)=C/c1cc(C)[nH]c1C	inactive	–
Cc1ccc(-c2nc3ccccc3[nH]2)cc1NC(=O)c1ccc2c(c1)OCO2	inconclusive: 29.1 µM [inhibitor, single point]	–
Cc1cc(-c2ccccc2)nc(N/N=C/c2ccc(O)cc2O)n1	inconclusive: 16.4 µM [inhibitor, single point]	–
c1coc(CNc2nc(NCc3ccco3)c3ccccc3n2)c1	active: 11.2 µM	–
Cc1ccc(C(=O)NC2CCN(S(=O)(=O)c3ccccc3F)CC2)cc1	inactive	–
CCOc1ccc(CCNC(=O)c2cnc3c(-c4ccccc4)c(C)nn3c2C)cc1OCC	inconclusive: 6.51 µM [inhibitor, partial curve]	–
Cc1ccc2nc(N3CCC(C(=O)O)CC3)nc(-c3ccccc3)c2c1	inactive	–
COc1cccc(C(O)c2nc(-c3cccc(C(=O)O)c3)cs2)c1 (stereo not drawn)	inactive	–
COc1ccccc1CNC(=O)C(C)n1c(=O)cc(C(F)(F)F)c2c(C)nn(C)c21 (stereo not drawn)	inconclusive: 23.1 µM [inhibitor, partial curve]	–
NC(=O)C[N+]1(CC#CC(O)(c2ccccc2)c2ccccc2)CCCC1	inactive	–
COc1ccc(/C=C(\NC(=O)c2ccccc2)C(=O)NCc2ccco2)cc1OC	inactive	–
CCCn1nnnc1NCc1ccc(OC)cc1	inactive	–
COc1ccc(/C=C(\NC(=O)c2ccco2)C(=O)Nc2ccc(C(C)=O)cc2)cc1	inactive	–
Clc1cccc(-c2ccc(-c3nc4ccccn4c3NCc3ccccc3)cc2)c1	active: 16.4 µM	–
CC(C)c1ccc(CN2C(=O)NC3(CCCCCC3)C2=O)cc1	inconclusive: 16.4 µM [inhibitor, single point]	–
COC(=O)C1=CN(c2ccc(Oc3ccccc3)cc2)C(N)=C(C#N)C1c1ccc(-c2ccccc2)cc1 (stereo not drawn)	–	inconclusive: -32.6% [inhibitor]
O=C(NCc1cc(F)ccc1F)C1CCC(=O)N(C2CCCCCC2)C1 (stereo not drawn)	inactive	–
COc1ccc(CN2C(=O)c3ccccc3C(/C=N/OCc3ccc(Cl)cc3)C2=O)cc1 (stereo not drawn)	active: 13 µM	–
Nc1ccn(C2CO[C@H](CO)O2)c(=O)n1 (stereo partly drawn)	inconclusive: 0.0237 µM [inhibitor, full curve, poor fit]	–
Cc1ccc(-c2n[nH]c(=S)n2/N=C/c2c(C)nn(-c3ccccc3)c2C)cc1	inconclusive: 29.1 µM [inhibitor, single point]	–
CCN(C[C@H]1N[C@@](Cc2ccccc2)(C(=O)OC)[C@H]2C(=O)N(Cc3ccccc3)C(=O)[C@@H]12)C(=O)c1ccccc1	inconclusive: 25.9 µM [inhibitor, single point]	–
COc1cc(C2CC(=O)Nc3cc4c(cc32)OCCO4)cc(OC)c1O (stereo not drawn)	inconclusive: 18.4 µM [inhibitor, single point]	–

From PubChem BioAssay AID686979 (National Center for Advancing Translational Sciences (NCATS), 2013)
